Measured values reported in PubChem BioAssay (NCI).
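Where inhibition never reached the appropriate level, the endpoint shown equals the highest concentration tested. Otherwise, values were interpolated linearly from a five-concentration, 48-hour dose response in 96-well plates. GI50 marks 50% less growth. The concentration for full growth arrest is given as TGI.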 Peptide text beside a SMILES is read from it.

System: NCI-H322M lung
Experiment: NCI anticancer screen, dose series, 48 h

SMILES	TGI	GI50
COc1ccc(O)c2c(=O)ccccc12	> 100 µM	–
CC(=O)O[C@H]1[C@@H]2OC(=O)C3(CC3)C2C[C@H]2O[C@]2(C)CC/C=C(\C)CCC[C@@H]1C (some centres not stated)	91 µM	27.3 µM
COC(=O)CCC(C)[C@H]1CCC2C3C(C[C@H](OC(C)=O)[C@@]21C)[C@@]1(C)CCC2(C[C@H]1C[C@H]3OC(C)=O)OOC1(CCC(C(C)(C)C)CC1)OO2 (some centres not stated)	> 100 µM	–
Cc1n(Cc2ccc3ccccc3c2)c2ccccc2[n+]1Cc1ccc2ccccc2c1	3 µM	1.56 µM
COC(=O)CCC1=C(C)C(C)=N/C1=C\c1[nH]c(-c2ccc[nH]2)cc1OC	19.3 µM	1.72 µM
Cc1nc(Nc2ccc(Cl)cc2)sc1C(=O)NNC(=O)C(=O)NN	92.8 µM	–
CN(C)c1ccc(N=Nc2ccc(Br)cn2)c(O)c1	> 100 µM	0.497 µM
C=C(C)C12OC3(c4ccccc4)OC1C1C4OC4(CO)C(O)C4(O)C(=O)C(C)=CC4C1(O3)C(C)C2OC(=O)/C=C/C=C/c1ccccc1 (configuration not stated)	2.06 µM	–
NC(CCCNCc1ccccc1)C(=O)O (configuration not stated)	> 100 µM	–
COc1ccc(-n2cnc3c(NCC(=O)O)ncnc32)cc1	> 100 µM	–
O=C(O)CCC[C@]1(O)O[C@@]2(CCCC2=O)[C@]2(O)CCC[C@@]21O	> 100 µM	–
COC(=O)C(C)(C)NC(=O)C(Cc1ccccc1)Nc1ncnc2c1ncn2-c1ccc(OC)cc1 (configuration not stated)	> 100 µM	–
N=c1c2ccccc2nc2oc3ccccc3n12	72.4 µM	–
Cc1cnc(NC2CCOCC2)nc1-n1cnc(C(=O)N[C@H](CN)c2cc(F)cc(Cl)c2)c1	42.4 µM	0.139 µM
COc1cc2c3c(c1OC)-c1ccccc1C(C(O)c1ccccc1)C3N(C)CC2 (configuration not stated)	> 100 µM	–
CCO/C(O)=C(/C(=N)N1CCOCC1)C(=O)Nc1cccc(Cl)c1	> 100 µM	–
COc1ccc(CNC(=O)[C@H](Cc2ccc(O)cn2)NC(C)=O)cc1OC	> 100 µM	–
CCCCCCCCCCCCCCCC[N+](C)(C)Cc1ccc(F)cc1	37 µM	–
COC(=O)[C@]1(C)CCC[C@]2(C)[C@H]3CC[C@]4(C(C)C)OO[C@@H](O4)[C@]34O[C@@H]4C[C@H]21	> 53 µM	–
FC(F)(F)c1ccc(C2=N/S(c3ccccc3)=N\C(c3ccc(C(F)(F)F)cc3)=N/S(c3ccccc3)=N\2)cc1 (configuration not stated)	> 100 µM	–
Cc1cc(-c2ccc(C3C(C#N)=C(N)Oc4c3c(=O)oc3ccccc43)cc2)cnc1F (configuration not stated)	> 100 µM	86.7 µM
NC(=O)CNC(=O)C1CC(O)CN1C(=O)OCc1ccccc1 (configuration not stated) (HELM PEPTIDE1{[O=C(OCc1ccccc1)[*:2]].[O=C(C1CC(O)CN1[*:1])[*:2]].G.[am]}$$$$V2.0)	> 100 µM	–
CN(C)CCNC(=O)c1cccc(NC(=O)c2ccccc2)c1[N+](=O)[O-]	> 100 µM	–
C=Cc1ccccc1C1C(C(=O)OCC)=C(C)N=C2OC(C(=O)OC)C(=O)N21 (configuration not stated)	> 100 µM	–
Cc1cn(C2OC(CO)C(O)C2O)c(=O)[nH]c1=O (configuration not stated)	> 1000 µM	–

SMILES	TGI	GI50
Cc1cc(C)nc(NS(=O)(=O)c2ccc(Nc3c4ccccc4nc4c(C(=O)N5CCN(CCO)CC5)ccc(Cl)c34)cc2)n1	> 100 µM	–
CC(=O)OC(OC(C)=O)c1ncccc1C(=O)OC(C)C	> 100 µM	–
O=c1oc2ccccc2c(O)c1C(C/C(CCN1CCCC1)=N/O)c1ccccc1 (configuration not stated)	> 100 µM	–
CC(C)(C)c1cc(COc2c3sc(=S)sc3c(OCc3cc(C(C)(C)C)cc(C(C)(C)C)c3)c3sc(=S)sc23)cc(C(C)(C)C)c1	> 100 µM	–
O=[N+]([O-])c1ccc2c3c1[C@H]1O[C@H]1c1cccc(c1-3)[C@@H]1O[C@H]21	15.2 µM	–
CC(=O)O[C@H](C[C@@H](C)[C@H]1C(=O)[C@H](O)[C@@]2(C)C3CC[C@H]4C(C)(C)[C@@H](OC5OCC(O)C(O)C5O)CC[C@@]45C[C@@]35CC[C@]12C)[C@@H]1OC1(C)C (some centres not stated)	47.8 µM	–
CCc1cccc(C)c1NC(=O)CCc1nnc(SC)o1	> 100 µM	–
CC(=O)c1cccc(NC(=O)C(=O)C(C(=O)NN)c2ccccc2)c1 (configuration not stated)	> 100 µM	–
COc1cccc(C2c3cc4c(cc3OC(NNc3ccccc3)C2C)OCO4)c1OC (configuration not stated)	> 100 µM	–
Cc1cc(C)c(-n2c(-c3ccccc3)cs/c2=N\N=C2C=C(C(C)(C)C)C(=O)C(C(C)(C)C)=C2)c(C)c1	> 100 µM	–
NC(N)=NS(=O)(=O)c1ccc(NC(=O)c2cccc3c(Nc4ccc(S(=O)(=O)N=C(N)N)cc4)c4ccccc4nc23)cc1	> 100 µM	–
Oc1ccc(Cl)cc1-c1cc(-c2ccc(Cl)cc2)n[nH]1	41.7 µM	2.72 µM
CCNC(=O)OCC1C2=C(C(=O)C(C)=C(N)C2=O)N2CC3C(N3C)C12OC (configuration not stated)	> 100 µM	–
CC(C)CC(=O)[O-].CC(C)CC(=O)[O-].N.N.N.N.[Co+3].[O-][Cl+3]([O-])([O-])O.[O-][Cl+3]([O-])([O-])[O-]	> 100 µM	> 100 µM
CC(C)=C[C@@H]1C[C@H](C)[C@H]2CC[C@H](C)c3c(O)c(OC4OCC(O)C(O)C4O)c(C)c1c32 (some centres not stated)	26.1 µM	13.3 µM
CC1(C)OC(CCC#N)CN1C(=O)OCc1ccccc1 (configuration not stated)	> 100 µM	–
O=c1[nH]c2c3ccncc3cc(-c3cccc(Cl)c3)c2c2cnccc12	> 100 µM	> 100 µM
N=C(N)c1ccc(-c2ccc(-c3cccs3)o2)cc1	4.3 µM	2.08 µM
CC1(C)CC(/C=C2/OC(=O)c3ccccc32)=C(C(N)=O)C(=O)O1	> 100 µM	–
O=C(Cc1ccc(OCc2ccccc2)cc1)NCc1ccc2c(c1)OCO2	> 100 µM	> 100 µM
N#Cc1nc(/C=C/c2nc(C#N)c(N)o2)oc1N	> 10 µM	–
NC(N)=NS(=O)(=O)c1ccc(NC(=O)c2cccc3cc4ccccc4nc23)cc1	> 100 µM	–
Cc1nn(CN2CCN(C)CC2)c(=S)n1/N=C/c1ccc(-c2ccc(Cl)cc2Cl)o1	> 100 µM	–
N#C/C(=C/N1C(=O)/C(=C/c2ccc([N+](=O)[O-])cc2)SC1=S)c1nc2ccccc2s1	88.3 µM	–
CCCCc1ccc(N2C(=O)c3cc([N+](=O)[O-])cnc3S2(=O)=O)cc1	> 100 µM	–
